Among all 48,000 compounds or so, about 450 (0.94%) were called active. The shares of active, inactive and inconclusive entries below differ from those in the screen. Calls come from the whole dose curve; as a rule, active = well fitted inhibition curve with a large enough effect; inconclusive = small, poorly fitted or top-dose-only effect; inactive = no such curve, though single readings can be large or run the other way. Potencies of inconclusive entries are doubtful fits and often do not repeat.
experiment: Primary qHTS for Identification of Small Molecule Inhibitors of Huntingtin Promoter Activity; settings: HEK293 HTT promoter firefly luciferase reporter (activity 0% = vehicle and -100% = no light), 24 h; activity change, negative = inhibition: at 57.5 µM (top of the series); note: nearly all actives have a fitted effect of over 50% in size
Procedure, shortened: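 Luminescence was read after Dual-Glo reagent and a 10 min room-temperature incubation. Values were normalized to vehicle (0% activity) and zero RLU (-100% activity). Reporter HEK293 cells had been exposed to compounds (up to 57.5 uM final) for 24 h.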
Potency is the fitted concentration of half-maximal effect; tags give direction and shape of the fitted curve.

Potency, inconclusive:
O=C(CCNS(=O)(=O)c1ccc2c(c1)CCN2C(=O)C1CC1)N1CCN(c2ccc(F)cc2)CC1 39.8 µM [inhibitor, partial curve, poor fit]
COc1ccc(CNC(=O)c2nnn(CC(=O)Nc3cc(C)cc(C)c3)c2N)cc1 25.1 µM [inhibitor, single point]
COC(=O)c1ccc(-n2c(/C=C\c3cccc(Br)c3)nc3ccccc3c2=O)cc1 20 µM [inhibitor, partial curve, poor fit]
CCc1nc2ccccc2n1CCCCOc1ccccc1C 39.8 µM [inhibitor, single point]
Cc1ccc(S(=O)(=O)C(CNC(=O)C(=O)NCCc2ccccc2)c2ccco2)cc1 (centres undefined) 39.8 µM [inhibitor, partial curve, poor fit]
CCCCCCn1c(CNC(=O)c2ccccc2)nc2ccccc21 39.8 µM [inhibitor, single point]
CCOC(=O)c1scc(-c2ccc(C)cc2)c1S(=O)(=O)Nc1cc(Cl)ccc1OC 31.6 µM [inhibitor, single point]
COc1cccc(CNC(=O)Cn2cc3c(n2)-c2c(oc(C(=O)N4CCCC4)c2C)CC3)c1 17.8 µM [inhibitor, partial curve, poor fit]
CCOc1ccc(NC(=O)c2cc(S(=O)(=O)NC3CCCC3)ccc2F)cc1 31.6 µM [inhibitor, partial curve, poor fit]
CCc1ccc(CNC(=O)Cn2c(-c3cccs3)cc3cc(F)ccc32)cc1 35.5 µM [inhibitor, single point]
COc1ccc(-c2cc(C(C)=O)c(C)n2CCC(=O)Nc2ccc(C(F)(F)F)cc2)cc1 17.8 µM [inhibitor, partial curve, poor fit]
COc1ccc(CNC(=O)CSc2n[nH]c(-c3ccc(OC)cc3)n2)cc1 17.8 µM [inhibitor, partial curve, poor fit]
COc1cc(Cn2c(=O)sc3ccccc32)ccc1OCCC(C)C 20 µM [inhibitor, partial curve]
Cc1ccccc1-c1nc(CS(=O)(=O)CC(=O)Nc2cc(Cl)cc(Cl)c2)c(C)o1 31.6 µM [inhibitor, single point]
CCOc1ccc(C(=O)NCCn2cc(SCC(=O)Nc3ccccc3)c3ccccc32)cc1 25.1 µM [inhibitor, single point]
COc1ccccc1CNC(=O)Cn1c(=O)oc2cc(S(=O)(=O)NCc3ccccc3)ccc21 22.4 µM [inhibitor, partial curve, poor fit]
O=C(Cn1nc(C(F)(F)F)c2c1CCC2)Nc1ccc(Cl)cc1 39.8 µM [inhibitor, single point]
Cn1c2ccccc2c2c3c(c4c5ccccc5n(CCC#N)c4c21)CNC3=O 7.69 µM [inhibitor, full curve]
Cc1ccc2c(c1C)NC(=O)CC2c1ccc(Cl)cc1Cl (centres undefined) 39.8 µM [inhibitor, single point]
O=C(CC1N=C2c3ccccc3N=C(SCc3cccc(F)c3)N2C1=O)NCc1ccc2c(c1)OCO2 (centres undefined) 39.8 µM [inhibitor, single point]
CS(=O)(=O)N1CCCc2cc(C(=O)Nc3cccc(C(F)(F)F)c3)ccc21 12.6 µM [inhibitor, partial curve]
COc1cc(-c2nc(-c3cccc(Cl)c3)c(-c3ccccc3)[nH]2)cc(OC)c1OC 25.1 µM [inhibitor, partial curve, poor fit]
CCOC(=O)c1ccc2c(c1)N(Cc1ccccc1)C(=O)c1ccccc1S2 39.8 µM [inhibitor, single point]
CCCCc1ccc(NC(=O)CSc2nc3ccccc3nc2N2CCOCC2)cc1 39.8 µM [inhibitor, single point]
O=C(Nc1cc(Cl)cc(Cl)c1)c1ccc(F)c(S(=O)(=O)NC2CCCCC2)c1 31.6 µM [inhibitor, single point]
CCCCn1c(NCc2cc(Br)ccc2O)nc2ccccc21 39.8 µM [inhibitor, single point]
Cc1cccc(NC(c2ccccc2C)c2ccc3ccc(C)nc3c2O)n1 (centres undefined) 28.2 µM [inhibitor, single point]
COc1ccc(S(=O)(=O)c2c(SC)nn(CC(=O)Nc3cccc(C)c3C)c2N)cc1 31.6 µM [inhibitor, single point]
CCC(C)Nc1oc(-c2ccc(COc3ccc(Cl)cc3)o2)nc1C#N (centres undefined) 31.6 µM [inhibitor, single point]
CCN(CC)c1nc2c(S(=O)(=O)c3cccc(Cl)c3)nnn2c2ccsc12 25.1 µM [inhibitor, single point]
O=C(CN1C(=O)COc2ccc(S(=O)(=O)N3CCCC3)cc21)N1CCN(c2cccc(C(F)(F)F)c2)CC1 39.8 µM [inhibitor, single point]
CCN(CC)S(=O)(=O)c1ccc(C(=O)NCCSc2c(-c3ccc(C)cc3)[nH]c3ccccc23)cc1 11.2 µM [inhibitor, partial curve]
CN1C(=O)c2ccccc2Sc2ccc(NC(=O)NCc3cccc(Cl)c3)cc21 31.6 µM [inhibitor, single point]
Cc1ccccc1C(=O)NCCc1csc(-c2ccc(C(F)(F)F)cc2)n1 25.1 µM [inhibitor, single point]
COc1ccc(-n2c(-c3ccc(C)cc3)cc3c2CC(C)(C)CC3=O)c(OC)c1 20 µM [inhibitor, single point]
CCc1ccccc1NC(=O)C1CCN(C(=O)N2CC(C)Oc3ccc(Cl)cc32)CC1 (centres undefined) 25.1 µM [inhibitor, single point]
Cc1c(Cl)cccc1-n1ncc(C(=O)NCc2cccs2)c1C1CCN(C(=O)OC(C)(C)C)CC1 39.8 µM [inhibitor, single point]
COc1cc(C2c3c(-c4ccc(C)cc4)n[nH]c3C(=O)N2c2ccc(F)cc2)ccc1O (centres undefined) 22.4 µM [inhibitor, partial curve]
Cc1cccc(NC(=O)c2cc(S(=O)(=O)N3CCN(c4ccccc4F)CC3)ccc2F)c1C 39.8 µM [inhibitor, single point]
N#C/C(=C/c1cn(Cc2ccccc2Cl)c2ccccc12)C(=O)Nc1cccc(Cl)c1 25.1 µM [inhibitor, single point]
COc1cc(NC(=O)N2CCC3(CC2)Nc2cc(F)ccc2-n2cccc23)cc(OC)c1OC 22.4 µM [inhibitor, partial curve, poor fit]
O=C(CSc1nc(-c2ccc(F)cc2)[nH]c1-c1ccccc1)Nc1ccccc1 25.1 µM [inhibitor, partial curve]
Cc1cccc(-c2nc(CSCC(=O)NCCc3ccc(Cl)cc3)c(C)o2)c1 28.2 µM [inhibitor, single point]
CC1CCCCN1c1c(S(=O)(=O)c2ccc(Cl)cc2)cnc2ccccc12 (centres undefined) 35.5 µM [inhibitor, single point]
Cc1ccc(CCNC(=O)c2sc3ncccc3c2-n2c(C)ccc2C)cc1 35.5 µM [inhibitor, partial curve, poor fit]
COc1cccc(C2=CC(c3ccccc3F)n3ncc(C(=O)Nc4ccc(C)cc4)c3N2)c1 (centres undefined) 28.2 µM [inhibitor, single point]
O=C(O)c1ccccc1C(=O)Nc1ccc(-c2ccccc2)cc1 24.3 µM [inhibitor, single point]
Cc1ccc(C)c(N2CCN(C(=O)c3cnn(C(C)(C)C)c3C3CCN(C(=O)OC(C)(C)C)CC3)CC2)c1 25.1 µM [inhibitor, single point]
Cc1ccc(N(CC(=O)N2CCN(c3cccc(Cl)c3)CC2)S(=O)(=O)c2c(C)noc2C)cc1 22.4 µM [inhibitor, single point]

Potency, inactive:
CCCC(O)c1nc2ccccc2n1CCCCOc1ccc(OC)cc1 (centres undefined)
O=C(Nc1ccc(N2CCN(CCOc3ccc(Cl)cc3)CC2)c(C(=O)O)c1)c1ccc(F)cc1
Cc1cnc(NS(=O)(=O)c2ccc(N)cc2)nc1
CCc1ccc(NC(=O)CSc2nc(-c3ccccc3)c(C#N)c(=O)[nH]2)cc1
CCc1ccc(C(=O)Nc2cc(CN3CCN(C)CC3)cc(C(F)(F)F)c2)cc1C#Cc1cnc2ccnn2c1
COc1cccc(OCc2cc(=O)n3c(-c4ccccc4)csc3n2)c1
CCOc1ccc(-n2c(SCC(=O)N3CCCCCC3)nc3c([nH]c4ccccc43)c2=O)cc1
Cc1cc(C)cc(-n2ccnc(NCCc3ccccc3)c2=O)c1
CCn1cc2nc(SCc3cccc(C(F)(F)F)c3)n(Cc3ccc(Cl)cc3)c(=O)c2n1

Activity change, negative = inhibition, inactive:
COc1ccccc1NC(=O)c1c(NC(=O)Cc2ccccc2)sc2c1CCC(C(C)(C)C)C2 (centres undefined) -2.98% [at 11.5 µM]
